# Data from the supplement of paper PMC8728848.
# The list shows a part of the results.
# B1: RBMC2 (Vibrio cholerae) (protein)
# chain: KISVRSGFAIDAIGASASTLVGGTGGNLNAAVNVKDIKAIDLTWGKYYWGGYHLLALDFRMSNGSVISMGSKNYAYSKQTERFTVPAGSRIKGIKAWTAGWLLDGVQFELA
# Assays:
# Assay in all cases: glycan array binding signal (z-score within array); higher = stronger binding
# Conditions in all cases: glycan notation: IUPAC condensed, linker removed
# [1] = target: Gal(b1-3)GlcNAc(b1-6)[Gal(b1-3)]GalNAc
# Method in brief: (§1)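 The Consortium for Functional Glycomics database supplied 3228 glycan arrays, of which those lacking an available protein sequence were dropped. The binding signal, a within-array Z-score, was averaged across arrays of the same protein sequence and across linkers. Negative scores can be read as non-binding.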
# Gal(b1-3)GlcNAc6S = target: Gal(b1-3)GlcNAc6S
# Method in brief: as §1
# [2] = target: Gal(b1-3)[Fuc(a1-4)]GlcNAc
# Method in brief: as §1
# [3] = target: Gal(b1-3)[Fuc(a1-4)]GlcNAc(b1-2)Man
# Method in brief: as §1
# [4] = target: Gal(b1-3)[Fuc(a1-4)]GlcNAc(b1-2)Man(a1-3)[Gal(b1-3)[Fuc(a1-4)]GlcNAc(b1-2)Man(a1-6)]Man(b1-4)GlcNAc(b1-4)[Fuc(a1-6)]GlcNAc
# Method in brief: as §1
# [5] = target: Gal(b1-3)[Fuc(a1-4)]GlcNAc(b1-3)Gal(b1-3)[Fuc(a1-4)]GlcNAc
# Method in brief: as §1
# [6] = target: Gal(b1-3)[Fuc(a1-4)]GlcNAc(b1-3)Gal(b1-4)[Fuc(a1-3)]GlcNAc
# Method in brief: as §1
# [7] = target: Gal(b1-3)[Fuc(a1-4)]GlcNAc(b1-6)GalNAc
# Method in brief: as §1
# [8] = target: Gal(b1-3)[GlcNAc(b1-6)]GalNAc
# Method in brief: as §1
# [9] = target: Gal(b1-3)[Neu5Ac(a2-6)]GalNAc
# Method in brief: as §1
# [10] = target: Gal(b1-3)[Neu5Ac(a2-6)]GlcNAc(b1-4)Gal(b1-4)Glc
# Method in brief: as §1
# [11] = target: Gal(b1-3)[Neu5Ac(b2-6)]GalNAc
# Method in brief: as §1
# Gal(b1-4)Gal = target: Gal(b1-4)Gal
# Method in brief: as §1
# [12] = target: Gal(b1-4)GalNAc(a1-3)[Fuc(a1-2)]Gal(b1-4)GlcNAc
# Method in brief: as §1
# [13] = target: Gal(b1-4)GalNAc(b1-3)[Fuc(a1-2)]Gal(b1-4)GlcNAc
# Method in brief: as §1
# Gal(b1-4)Glc = target: Gal(b1-4)Glc
# Method in brief: as §1
# Gal(b1-4)Glc6S = target: Gal(b1-4)Glc6S
# Method in brief: as §1
# Gal(b1-4)GlcNAc = target: Gal(b1-4)GlcNAc
# Method in brief: as §1
# [14] = target: Gal(b1-4)GlcNAc(a1-6)Gal(b1-4)GlcNAc
# Method in brief: as §1
# Gal(b1-4)GlcNAc(b1-2)Man = target: Gal(b1-4)GlcNAc(b1-2)Man
# Method in brief: as §1
# [15] = target: Gal(b1-4)GlcNAc(b1-2)Man(a1-3)Man(b1-4)GlcNAc(b1-4)GlcNAc
# Method in brief: as §1
# [16] = target: Gal(b1-4)GlcNAc(b1-2)Man(a1-3)[Gal(b1-4)GlcNAc(b1-2)Man(a1-6)]Man(b1-4)GlcNAc(b1-4)GlcNAc
# Method in brief: as §1
# [17] = target: Gal(b1-4)GlcNAc(b1-2)Man(a1-3)[Gal(b1-4)GlcNAc(b1-2)Man(a1-6)]Man(b1-4)GlcNAc(b1-4)[Fuc(a1-6)]GlcNAc
# Method in brief: as §1
# [18] = target: Gal(b1-4)GlcNAc(b1-2)Man(a1-3)[Gal(b1-4)GlcNAc(b1-2)Man(a1-6)][Gal(b1-4)GlcNAc(b1-4)]Man(b1-4)GlcNAc(b1-4)[Fuc(a1-6)]GlcNAc
# Method in brief: as §1
# [19] = target: Gal(b1-4)GlcNAc(b1-2)Man(a1-3)[Gal(b1-4)GlcNAc(b1-2)Man(a1-6)][GlcNAc(b1-4)]Man(b1-4)GlcNAc(b1-4)[Fuc(a1-6)]GlcNAc
# Method in brief: as §1
# [20] = target: Gal(b1-4)GlcNAc(b1-2)Man(a1-3)[GlcNAc(b1-2)Man(a1-6)]Man(b1-4)GlcNAc(b1-4)GlcNAc
# Method in brief: as §1
# [21] = target: Gal(b1-4)GlcNAc(b1-2)Man(a1-3)[GlcNAc(b1-4)][Gal(b1-4)GlcNAc(b1-2)Man(a1-6)]Man(b1-4)GlcNAc(b1-4)GlcNAc
# Method in brief: as §1
# [22] = target: Gal(b1-4)GlcNAc(b1-2)Man(a1-3)[Man(a1-6)]Man(b1-4)GlcNAc(b1-4)GlcNAc
# Method in brief: as §1
# [23] = target: Gal(b1-4)GlcNAc(b1-2)Man(a1-6)Man(b1-4)GlcNAc(b1-4)GlcNAc
# Method in brief: as §1
# [24] = target: Gal(b1-4)GlcNAc(b1-2)Man(a1-6)[GlcNAc(b1-2)Man(a1-3)]Man(b1-4)GlcNAc(b1-4)GlcNAc
# Method in brief: as §1
# [25] = target: Gal(b1-4)GlcNAc(b1-2)Man(a1-6)[Man(a1-3)]Man(b1-4)GlcNAc(b1-4)GlcNAc
# Method in brief: as §1
# [26] = target: Gal(b1-4)GlcNAc(b1-2)[Gal(b1-4)GlcNAc(b1-4)]Man(a1-3)[Gal(b1-4)GlcNAc(b1-2)Man(a1-6)]Man(b1-4)GlcNAc(b1-4)GlcNAc
# Method in brief: as §1
# [27] = target: Gal(b1-4)GlcNAc(b1-2)[Gal(b1-4)GlcNAc(b1-4)]Man(a1-3)[Gal(b1-4)GlcNAc(b1-2)[Gal(b1-4)GlcNAc(b1-6)]Man(a1-6)]Man(b1-4)GlcNAc(b1-4)GlcNAc
# Method in brief: as §1
# [28] = target: Gal(b1-4)GlcNAc(b1-2)[Gal(b1-4)GlcNAc(b1-4)]Man(a1-3)[GlcNAc(b1-4)][Gal(b1-4)GlcNAc(b1-2)Man(a1-6)]Man(b1-4)GlcNAc(b1-4)GlcNAc
# Method in brief: as §1
# [29] = target: Gal(b1-4)GlcNAc(b1-2)[Gal(b1-4)GlcNAc(b1-4)]Man(a1-3)[GlcNAc(b1-4)][Gal(b1-4)GlcNAc(b1-2)[Gal(b1-4)GlcNAc(b1-6)]Man(a1-6)]Man(b1-4)GlcNAc(b1-4)GlcNAc
# Method in brief: as §1
# [30] = target: Gal(b1-4)GlcNAc(b1-2)[Gal(b1-4)GlcNAc(b1-6)]Man(a1-6)[Gal(b1-4)GlcNAc(b1-2)Man(a1-3)]Man(b1-4)GlcNAc(b1-4)GlcNAc
# Method in brief: as §1
# [31] = target: Gal(b1-4)GlcNAc(b1-2)[Gal(b1-4)GlcNAc(b1-6)]Man(a1-6)[Gal(b1-4)GlcNAc(b1-2)Man(a1-3)]Man(b1-4)GlcNAc(b1-4)[Fuc(a1-6)]GlcNAc
# Method in brief: as §1
# [32] = target: Gal(b1-4)GlcNAc(b1-2)[Gal(b1-4)GlcNAc(b1-6)]Man(a1-6)[GlcNAc(b1-4)][Gal(b1-4)GlcNAc(b1-2)Man(a1-3)]Man(b1-4)GlcNAc(b1-4)GlcNAc
# Method in brief: as §1
# [33] = target: Gal(b1-4)GlcNAc(b1-2)[Gal(b1-4)GlcNAc(b1-6)]Man(a1-6)[GlcNAc(b1-4)][Gal(b1-4)GlcNAc(b1-2)[Gal(b1-4)GlcNAc(b1-4)]Man(a1-3)]Man(b1-4)GlcNAc(b1-4)[Fuc(a1-6)]GlcNAc
# Method in brief: as §1
# [34] = target: Gal(b1-4)GlcNAc(b1-3)Gal(b1-3)GalNAc
# Method in brief: as §1
# [35] = target: Gal(b1-4)GlcNAc(b1-3)Gal(b1-3)GlcNAc
# Method in brief: as §1
# [36] = target: Gal(b1-4)GlcNAc(b1-3)Gal(b1-4)Glc
# Method in brief: as §1
# [37] = target: Gal(b1-4)GlcNAc(b1-3)Gal(b1-4)GlcNAc
# Method in brief: as §1
# [38] = target: Gal(b1-4)GlcNAc(b1-3)Gal(b1-4)GlcNAc(b1-2)Man(a1-3)[Gal(b1-4)GlcNAc(b1-3)Gal(b1-4)GlcNAc(b1-2)Man(a1-6)]Man(b1-4)GlcNAc(b1-4)GlcNAc
# Method in brief: as §1
# [39] = target: Gal(b1-4)GlcNAc(b1-3)Gal(b1-4)GlcNAc(b1-2)Man(a1-3)[Gal(b1-4)GlcNAc(b1-3)Gal(b1-4)GlcNAc(b1-2)Man(a1-6)]Man(b1-4)GlcNAc(b1-4)[Fuc(a1-6)]GlcNAc
# Method in brief: as §1
binder,measurement,setting,value
B1,glycan array binding signal (z-score),[1],-0.139
same,glycan array binding signal (z-score),Gal(b1-3)GlcNAc6S,-0.092
same,glycan array binding signal (z-score),[2],-0.311
same,glycan array binding signal (z-score),[3],-0.125
same,glycan array binding signal (z-score),[4],-0.354
same,glycan array binding signal (z-score),[5],-0.466
same,glycan array binding signal (z-score),[6],-0.424
same,glycan array binding signal (z-score),[7],-0.311
same,glycan array binding signal (z-score),[8],-0.344
same,glycan array binding signal (z-score),[9],-0.366
same,glycan array binding signal (z-score),[10],-0.417
same,glycan array binding signal (z-score),[11],-0.38
same,glycan array binding signal (z-score),Gal(b1-4)Gal,-0.359
same,glycan array binding signal (z-score),[12],-0.328
same,glycan array binding signal (z-score),[13],-0.345
same,glycan array binding signal (z-score),Gal(b1-4)Glc,-0.387
same,glycan array binding signal (z-score),Gal(b1-4)Glc6S,-0.178
same,glycan array binding signal (z-score),Gal(b1-4)GlcNAc,-0.367
same,glycan array binding signal (z-score),[14],-0.466
same,glycan array binding signal (z-score),Gal(b1-4)GlcNAc(b1-2)Man,-0.325
same,glycan array binding signal (z-score),[15],-0.272
same,glycan array binding signal (z-score),[16],-0.184
same,glycan array binding signal (z-score),[17],2.15
same,glycan array binding signal (z-score),[18],-0.242
same,glycan array binding signal (z-score),[19],-0.167
same,glycan array binding signal (z-score),[20],2.5
same,glycan array binding signal (z-score),[21],-0.15
same,glycan array binding signal (z-score),[22],-0.039
same,glycan array binding signal (z-score),[23],-0.452
same,glycan array binding signal (z-score),[24],3.21
same,glycan array binding signal (z-score),[25],0.124
same,glycan array binding signal (z-score),[26],-0.06
same,glycan array binding signal (z-score),[27],1.6
same,glycan array binding signal (z-score),[28],-0.406
same,glycan array binding signal (z-score),[29],-0.379
same,glycan array binding signal (z-score),[30],1.41
same,glycan array binding signal (z-score),[31],0.211
same,glycan array binding signal (z-score),[32],-0.322
same,glycan array binding signal (z-score),[33],-0.414
same,glycan array binding signal (z-score),[34],-0.334
same,glycan array binding signal (z-score),[35],-0.299
same,glycan array binding signal (z-score),[36],-0.422
same,glycan array binding signal (z-score),[37],-0.235
same,glycan array binding signal (z-score),[38],0.943
same,glycan array binding signal (z-score),[39],3.18
